Experimental data reported in the supplement of paper PMC3334620.
Whole data set: some 33,000 sequences, median “E-score (-0.5 to 0.5)” near -0.016, cut for the highest 2% near 0.32. The list shows a part of the results.

Target: T1, Stp1 (UniProt B3LFK1)
T1 sequence: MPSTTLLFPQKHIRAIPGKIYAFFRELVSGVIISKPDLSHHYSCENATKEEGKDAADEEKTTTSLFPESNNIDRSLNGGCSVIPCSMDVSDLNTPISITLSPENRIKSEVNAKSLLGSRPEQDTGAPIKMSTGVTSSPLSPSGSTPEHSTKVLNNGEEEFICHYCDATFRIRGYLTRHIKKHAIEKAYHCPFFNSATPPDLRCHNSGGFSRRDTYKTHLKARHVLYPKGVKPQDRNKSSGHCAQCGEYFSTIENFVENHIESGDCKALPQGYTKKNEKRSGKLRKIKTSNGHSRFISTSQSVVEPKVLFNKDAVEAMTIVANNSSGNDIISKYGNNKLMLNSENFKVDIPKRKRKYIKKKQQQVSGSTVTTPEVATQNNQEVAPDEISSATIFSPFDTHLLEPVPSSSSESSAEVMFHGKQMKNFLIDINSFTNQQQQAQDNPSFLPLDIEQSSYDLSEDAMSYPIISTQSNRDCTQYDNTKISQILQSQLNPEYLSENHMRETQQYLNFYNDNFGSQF
Assay: PBM E-score (8-mer binding enrichment) (E-score (-0.5 to 0.5)); higher = stronger / more preferred TF binding; most listed sequences are background and not binding sites
Conditions: protein concentration: 200 nM; construct: GST-full length
How it was run: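 For each ungapped eight-base word taken together with its reverse complement, the Universal PBM Analysis Suite assigned an E-score. Binding data came from GST-tagged yeast transcription factors, applied at about 100-200 nM, on universal all-10-mer Agilent arrays made double-stranded by primer extension. Fluorescent anti-GST marked bound protein, and scans were normalised with masliner.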

Sequence | PBM E-score
CGTGCAAA | 0.177
GAACGTGC | 0.0574
ACGTCGAG | -0.244
GAGAGTGC | -0.166
ACTAATTG | 0.0864
ATATGAGA | 0.0204
CCCATTAG | -0.364
ACCCAACA | -0.133
CTTGATTC | 0.0372
AAGGAGAA | -0.131
ATACTCTG | -0.00108
ATAGTTGA | -0.0464
CCGGATGC | -0.106
AGAGCTAA | -0.187
ACGAAGAG | -0.0307
CAGGCAGC | -0.23
AGATCATC | -0.13
ATTTATAA | 0.195
ACGCTACT | -0.168
ACAGAAGG | -0.081
CTTGAGTA | -0.00435
CTAGTAAG | 0.0404
ATCTAATC | 0.0773
CATCGGCC | -0.103
CATATTGC | 0.0265

Sequence | PBM E-score
GAAGCAGC | -0.167
AGGTAGCC | -0.177
ACAGCCTG | -0.117
CGGCACAC | 0.381
CATGATGG | -0.221
AGTCAGAA | -0.15
CTGGCAAC | -0.177
TATCTAGA | 0.039
GGTAGCAA | -0.127
AGTTAGAC | 0.124
ATAGATCA | 0.0678
ATGCAAGC | -0.0241
ATTGTTGA | 0.218
AAGTAGTG | -0.0692
ATAACACA | 0.0258
TAATAGTA | 0.24
ATCGGAAG | 0.00586
CCTAGGAG | -0.119
GGGCGGAA | -0.0696
ACATCCAA | 0.00763
GTCCTCCA | -0.0507
GTTTATTA | 0.0702
AACGGACT | -0.113
ACGGCACA | 0.479
ACCAAGCG | -0.126

Sequence | PBM E-score
CCCTAAAA | -0.166
GTCGGCCA | -0.144
GGATGAAC | -0.0737
CCGATCAA | -0.19
AGTAACAC | -0.00067
CTCGGGAA | -0.0534
CTAGCGCA | -0.303
CCAATTAG | 0.0654
ATGGGACC | -0.26
CCAGACTA | -0.205
TACATGTA | -0.101
CCCCCCAC | -0.271
CTTAGCCA | 0.13
CGGGTACG | -0.028
CTCAGTGC | 0.0373
CAGGGAGC | -0.343
GAGGAGAA | -0.2
CATAACTA | 0.0928
CAATACAA | -0.0234
GGTGCCTA | 0.0845
CACATTTC | 0.0626
CGCACAAG | 0.0252
CAGAGCTA | -0.171
AAAAGATT | 0.00836
TTTGAAAA | 0.217

Sequence | PBM E-score
ATTTATTA | 0.324
ATCTCCAT | -0.0369
AATTTGAG | 0.0102
GGACTGAC | -0.21
AATCAGAA | 0.00145
CACTGTCG | -0.188
GGCCAGCC | -0.251
CGAAGGAC | -0.0962
ACAAGCTC | -0.218
ACCCCCCG | -0.334
ACTATTTC | 0.0777
GACTAGTA | 0.0942
CCGTTTCG | 0.255
AATTCGAC | -0.244
ACAGTTCG | 0.193
CGCACCGA | 0.0478
GATATCAC | -0.0115
CGTTGCAC | 0.13
CCACTGAC | 0.0351
TGGACAAA | -0.0269
CTCTGGGC | -0.215
GCCTTAAC | -0.0752
CCTGTAGC | -0.169
TACGATGA | -0.0581
ACCCTACC | -0.119

Sequence | PBM E-score
CTTGTGCA | 0.141
AGAGCGTA | -0.122
CGACGCGC | 0.199
TATCATAA | 0.113
CGAACCGC | 0.0548
AGTGAGCA | -0.269
ATCGAGAG | -0.151
AATGACGC | 0.09
GACGCGCA | -0.105
AACCGGGG | -0.218
AACACCGG | -0.0221
CGAGGCGC | 0.456
AGGGGTAA | -0.24
AAGATGGT | -0.0801
ACAGGACT | -0.213
GATCAGGA | -0.0559
GATAGATA | -0.0169
CTCCACCC | -0.193
ACATATAG | 0.153
AAGGAACT | -0.0685
TGTGAAAA | 0.0323
CGAATTGA | -0.0676
GATTGCAC | 0.0784
AAACGACA | 0.167
AGTATTGA | 0.0696

Sequence | PBM E-score
CCTCTGCG | -0.205
ACGTAAAG | -0.00101
AGATCTGA | -0.126
CCTAGTCC | -0.292
TCTGTACA | 0.112
CGCGTGTA | 0.11
CGATTTTC | 0.175
ACGCGTCG | 0.166
AGCTACGA | -0.0885
CATTCTCC | -0.0271
ACGATGTG | 0.101
TCCTTCAA | -0.18
TCCATCCA | -0.172
GTCGCTCA | -0.108
CTCAGCCC | -0.353
AAGGCGGG | -0.112
ACCGCAAG | 0.0229
CTTTGTCA | 0.129
TCGCTTCA | 0.00501
GGCAGACA | -0.0599
GCCCCAAA | -0.0406
GCGCTTCC | 0.111
GCTTGAAA | 0.0513
ATAACGTC | -0.0778
AATACACC | 0.116

Sequence | PBM E-score
CGACCTAG | -0.0414
AGACTTCC | -0.284
GATCATAC | 0.0959
AGGAATGG | -0.0542
ATCTGAGA | -0.0556
CACATATC | 0.0808
GATGACCA | -0.0425
ATTCTACC | 0.0795
ACGTCCTC | -0.23
AGATACGC | 0.128
CAAAATAA | 0.155
ACTTTATA | 0.213
CAGGGTGG | -0.205
CTGTTGAC | -0.102
ACATGTGA | -0.00447
CGACTGGC | 0.0517
ATACAAGC | 0.00117
AGCATAAC | 0.0775
GCTCGGTA | 0.0377
TACGGATA | 0.189
GTCAGGGA | -0.292
ATGTTCGA | -0.0276
ATTGACTC | -0.142
CGCAACGC | 0.257
GCGCACAC | -0.0434

Sequence | PBM E-score
CAGATTTC | 0.138
GAGCACCC | -0.22
CAAGTCAC | -0.0456
GGGGATAC | -0.231
ACAGTTTA | 0.0351
AATGAAGG | 0.067
AGTCAAAG | -0.111
ACGCACAA | -0.0586
ACGTGCCC | 0.18
GCCGCCCA | 0.111
GACTGCCA | -0.0407
GTTTCACA | 0.216
CGTTGGAG | 0.0649
GGCTTTCA | 0.136
CCTAGAGC | -0.157
CACGCCTA | -0.00198
CGGATTAC | -0.0627
TTAGGGAA | -0.0263
CAGAGAAC | -0.171
AGGCACGA | 0.267
ATGAAAGC | 0.168
GCGGTCCC | -0.16
TCTCTACA | -0.127
AGTCTGGA | -0.0979
GCTTCCTA | -0.0318

Sequence | PBM E-score
AACAAACG | 0.161
CCTCGATA | 0.0827
CACTGCGG | 0.124
CAGAGGCC | -0.211
TCTCCACA | 0.0434
AACAATGC | 0.174
GAAAATCC | 0.0969
ACGAGATA | -0.136
AAGACCCT | -0.262
AAGGACCC | -0.247
GGATATCA | 0.173
GCGCACGA | -0.0486
GTATGGAC | 0.19
CCTTAGAG | -0.28
CCGTCGTA | -0.00666
CCGTAATC | 0.0826
CACTTGGC | -0.191
CCTATTCA | -0.111
TCTACTCA | 0.145
